From PubChem BioAssay AID463173 (ICCB-Longwood Screening Facility, Harvard Medical School, 2010)
The whole screen tested about 52,000 compounds, of which about 4,300 (8.3%) were called active. Cut-off read from the data, not from the text of the source: active = survival mostly below about 52% (no sharp cut-off); inactive = mostly above about 56%. The list shows a part of the results.

tested on: DeltatarO mutant; assay: growth inhibition of S. aureus wild type versus tarO mutant, primary screen, teichoic acid synthesis inhibitors, RN4220, OD600 (AID 463173); conditions: OD600, 18 h, stronger effect = lower value, screened at 18.75 µg/mL (by protocol)

Q: For `COc1ccccc1N(Cc1cc2cccc(C)c2[nH]c1=O)C(=O)c1cccc(Cl)c1`, which survival is on record?
A: inactive: 98%

Q: `Cc1ccc(Cl)cc1N1CCN(C(=O)Cn2cnc3nc4c(cc3c2=O)CCCC4)CC1` was tested. Which survival did it give?
A: inactive: 68%

Q: How did the survival turn out when `N#C/C(=C\c1cn(CCOc2ccccc2F)c2ccccc12)C(=O)NC1CC1` was run?
A: inactive: 72%

Q: With `Cc1ccc(C)n1-c1nnc(N2CCCC(C(=O)NCc3ccc(F)cc3)C2)s1` (centres undefined) as the compound, how does the survival read?
A: inactive: 93%

Q: For `O=C(NCc1ccc(Cl)cc1)c1cc2ccccc2o1`, which survival is on record?
A: active: 61%

Q: How did the survival turn out when `CCN(CC)C(=O)Cn1c(=O)n(CCCCCC(=O)NCc2ccccc2Cl)c(=O)c2sccc21` was run?
A: inactive: 139%

Q: For `O=C(NCc1cccc(Br)c1)c1cccn1-c1nnc(N2CCCCC2)s1`, which survival is on record?
A: inactive: 78%

Q: Which survival does the source give for `CCn1cc(S(=O)(=O)c2cc(C)cc(C)c2)c(=O)c2cc(F)c(N3CCC(C)CC3)cc21` here?
A: inactive: 64%

Q: `Cc1ccc2nc(-c3ccc(C)c(NC(=O)CSc4ccc(Cl)cc4)c3)oc2c1` was tested. Which survival did it give?
A: inactive: 85%

Q: How did the survival turn out when `CCOc1ccc(N(C(=O)c2ccc(C)cc2)S(=O)(=O)c2ccc3c(c2)n(C)c(=O)n3C)cc1` was run?
A: inactive: 45%

Q: How did the survival turn out when `CCN1CCN(C(=O)c2ccc3c(c2)N(Cc2cccc(F)c2)C(=O)c2ccccc2S3)CC1` was run?
A: inactive: 85%

Q: How did the survival turn out when `COCCCNC(=O)Cn1cnc2sc(C)c(S(=O)(=O)N3CCN(c4ccccc4OC)CC3)c2c1=O` was run?
A: inactive: 82%

Q: How did the survival turn out when `CCOC(=O)c1cc(-c2ccc(C)cc2)n(CCC(=O)Nc2ccc(OC)c(OC)c2)c1C` was run?
A: active: 52%

Q: For `CCCCCN1C(C(=O)c2ccccc2)=C(NC(=O)c2ccccc2Cl)c2ccccc2S1(=O)=O`, which survival is on record?
A: inactive: 75%

Q: With `COc1ccc(CCNC(=O)c2ccc3c(c2)N(Cc2ccc(Cl)cc2)CCS3)c(OC)c1` as the compound, how does the survival read?
A: inactive: 83%

Q: Which survival does the source give for `O=C(CCn1c(=O)c2cccn2c2cccnc21)N1CCN(c2cccc(Cl)c2)CC1` here?
A: active: 46%

Q: `Cc1cccc(-c2nc(SCC(=O)Nc3ccc4c(c3)OCO4)c(-c3ccccc3)[nH]2)c1` was tested. Which survival did it give?
A: active: 40%

Q: How did the survival turn out when `COc1ccc(NC(=O)C2CCCN2S(=O)(=O)c2ccc3nc(-c4ccccc4)[nH]c3c2)cc1` (centres undefined) was run?
A: inactive: 77%

Q: With `Cc1cccc(C)c1NC(=O)CS(=O)CC(=O)NC1CCCc2ccccc21` (centres undefined) as the compound, how does the survival read?
A: inactive: 84%

Q: With `CN1C(=O)Cc2cc(S(=O)(=O)NCCc3ccccc3)ccc21` as the compound, how does the survival read?
A: inactive: 123%

Q: For `CCN(CC)C(=O)Oc1ccc(Cl)c2cccnc12`, which survival is on record?
A: inactive: 102%

Q: Which survival does the source give for `COC(=O)c1ccc(NC(=O)C2CCN(C(=O)c3ccc(F)cc3)CC2)cc1` here?
A: inactive: 73%

Q: For `Cc1cc(C)nc(NCCS)n1`, which survival is on record?
A: inactive: 76%

Q: Which survival does the source give for `N#Cc1cccc(NC(=O)C2CCN(c3ncccn3)CC2)c1` here?
A: inactive: 66%
